In PMC9911399, “Two distinct binding modes provide the RNA-binding protein RbFox with extraordinary sequence specificity” one finds binding signal data, which are given here for 31 molecules.

Sequences and labels used below:
B1: CAGUCCA (DNA:RNA)
RNA: GGGAGACCGGAAUUCAGAUUGUCCCAGUCCAUUAAAUCCCGUCGUAGCCACCA
DNA 1: CAATCTGAATTCCGGTCTCCC
DNA 2: TGGTGGCTACGACGGGATT
B2: CAGAGCU (DNA:RNA)
RNA: B1 RNA with U28A, C29G, A31U
DNA 1: CAATCTGAATTCCGGTCTCCC
DNA 2: TGGTGGCTACGACGGGATT
B3: UGUCCCA (DNA:RNA)
RNA: B1 RNA with C25U, A26G, G27U, U28C
DNA 1: CAATCTGAATTCCGGTCTCCC
DNA 2: TGGTGGCTACGACGGGATT
B4: ACAACUC (DNA:RNA)
RNA: B1 RNA with C25A, A26C, G27A, U28A, C30U, A31C
DNA 1: CAATCTGAATTCCGGTCTCCC
DNA 2: TGGTGGCTACGACGGGATT
B5: GCCUGGA (DNA:RNA)
RNA: B1 RNA with C25G, A26C, G27C, C29G, C30G
DNA 1: CAATCTGAATTCCGGTCTCCC
DNA 2: TGGTGGCTACGACGGGATT
B6: GGCUCAU (DNA:RNA)
RNA: B1 RNA with C25G, A26G, G27C, C30A, A31U
DNA 1: CAATCTGAATTCCGGTCTCCC
DNA 2: TGGTGGCTACGACGGGATT
B7: GCUGGAC (DNA:RNA)
RNA: GGGAGACCGGAAUUCAGAUUGUCCGCUGGACUUAAAUCCCGUCGUAGCCACCA
DNA 1: CAATCTGAATTCCGGTCTCCC
DNA 2: TGGTGGCTACGACGGGATT
B8: CCAUGAU (DNA:RNA)
RNA: B7 RNA with G25C, U27A, G28U, C31U
DNA 1: CAATCTGAATTCCGGTCTCCC
DNA 2: TGGTGGCTACGACGGGATT
B9: AUAGCAA (DNA:RNA)
RNA: B1 RNA with C25A, A26U, G27A, U28G, C30A
DNA 1: CAATCTGAATTCCGGTCTCCC
DNA 2: TGGTGGCTACGACGGGATT
B10: CGUCUGU (DNA:RNA)
RNA: B1 RNA with A26G, G27U, U28C, C29U, C30G, A31U
DNA 1: CAATCTGAATTCCGGTCTCCC
DNA 2: TGGTGGCTACGACGGGATT
B11: UUCAUGU (DNA:RNA)
RNA: GGGAGACCGGAAUUCAGAUUGUCCUUCAUGUUUAAAUCCCGUCGUAGCCACCA
DNA 1: CAATCTGAATTCCGGTCTCCC
DNA 2: TGGTGGCTACGACGGGATT
B12: CCCGUUU (DNA:RNA)
RNA: B11 RNA with U25C, U26C, A28G, G30U
DNA 1: CAATCTGAATTCCGGTCTCCC
DNA 2: TGGTGGCTACGACGGGATT
B13: UGCGGUA (DNA:RNA)
RNA: B7 RNA with G25U, C26G, U27C, A30U, C31A
DNA 1: CAATCTGAATTCCGGTCTCCC
DNA 2: TGGTGGCTACGACGGGATT
B14: GCACCGG (DNA:RNA)
RNA: B7 RNA with U27A, G28C, G29C, A30G, C31G
DNA 1: CAATCTGAATTCCGGTCTCCC
DNA 2: TGGTGGCTACGACGGGATT
B15: UAGCACG (DNA:RNA)
RNA: B1 RNA with C25U, U28C, C29A, A31G
DNA 1: CAATCTGAATTCCGGTCTCCC
DNA 2: TGGTGGCTACGACGGGATT
B16: UCACCCA (DNA:RNA)
RNA: B1 RNA with C25U, A26C, G27A, U28C
DNA 1: CAATCTGAATTCCGGTCTCCC
DNA 2: TGGTGGCTACGACGGGATT
B17: GCUCCAG (DNA:RNA)
RNA: B7 RNA with G28C, G29C, C31G
DNA 1: CAATCTGAATTCCGGTCTCCC
DNA 2: TGGTGGCTACGACGGGATT
B18: AUAAUUG (DNA:RNA)
RNA: B11 RNA with U25A, C27A, G30U, U31G
DNA 1: CAATCTGAATTCCGGTCTCCC
DNA 2: TGGTGGCTACGACGGGATT
B19: CAAGAGU (DNA:RNA)
RNA: B1 RNA with G27A, U28G, C29A, C30G, A31U
DNA 1: CAATCTGAATTCCGGTCTCCC
DNA 2: TGGTGGCTACGACGGGATT
B20: UCAACCU (DNA:RNA)
RNA: B11 RNA with U26C, C27A, U29C, G30C
DNA 1: CAATCTGAATTCCGGTCTCCC
DNA 2: TGGTGGCTACGACGGGATT
B21: GCUUCUA (DNA:RNA)
RNA: B1 RNA with C25G, A26C, G27U, C30U
DNA 1: CAATCTGAATTCCGGTCTCCC
DNA 2: TGGTGGCTACGACGGGATT
B22: AAUGUCU (DNA:RNA)
RNA: B1 RNA with C25A, G27U, U28G, C29U, A31U
DNA 1: CAATCTGAATTCCGGTCTCCC
DNA 2: TGGTGGCTACGACGGGATT
B23: UACACAC (DNA:RNA)
RNA: B11 RNA with U26A, U29C, G30A, U31C
DNA 1: CAATCTGAATTCCGGTCTCCC
DNA 2: TGGTGGCTACGACGGGATT
B24: UUCUUAA (DNA:RNA)
RNA: B11 RNA with A28U, G30A, U31A
DNA 1: CAATCTGAATTCCGGTCTCCC
DNA 2: TGGTGGCTACGACGGGATT
B25: UUACCUC (DNA:RNA)
RNA: B11 RNA with C27A, A28C, U29C, G30U, U31C
DNA 1: CAATCTGAATTCCGGTCTCCC
DNA 2: TGGTGGCTACGACGGGATT
B26: AAAGUGA (DNA:RNA)
RNA: B1 RNA with C25A, G27A, U28G, C29U, C30G
DNA 1: CAATCTGAATTCCGGTCTCCC
DNA 2: TGGTGGCTACGACGGGATT
B27: UAAACGC (DNA:RNA)
RNA: B11 RNA with U26A, C27A, U29C, U31C
DNA 1: CAATCTGAATTCCGGTCTCCC
DNA 2: TGGTGGCTACGACGGGATT
B28: AAAAGCG (DNA:RNA)
RNA: B1 RNA with C25A, G27A, U28A, C29G, A31G
DNA 1: CAATCTGAATTCCGGTCTCCC
DNA 2: TGGTGGCTACGACGGGATT
B29: UACUGCA (DNA:RNA)
RNA: B1 RNA with C25U, G27C, C29G
DNA 1: CAATCTGAATTCCGGTCTCCC
DNA 2: TGGTGGCTACGACGGGATT
B30: AAAGCGA (DNA:RNA)
RNA: B1 RNA with C25A, G27A, U28G, C30G
DNA 1: CAATCTGAATTCCGGTCTCCC
DNA 2: TGGTGGCTACGACGGGATT
B31: GUAACGU (DNA:RNA)
RNA: B11 RNA with U25G, C27A, U29C
DNA 1: CAATCTGAATTCCGGTCTCCC
DNA 2: TGGTGGCTACGACGGGATT

Changes are numbered by the printed parent chain; changes in the protein carry UniProt numbers. Some of the results follow.

This assay concerns the target T1, RBFOX1 RRM (Homo sapiens, UniProt Q9NWB1 109-208).
T1 sequence: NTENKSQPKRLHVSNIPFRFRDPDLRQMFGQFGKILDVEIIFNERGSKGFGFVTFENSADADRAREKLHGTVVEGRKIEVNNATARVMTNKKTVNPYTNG
In words: EMSA; HiTS-Eq, 1 nM pool, 10 min; buffer printed only for the single-RNA assays: 10 mM Tris pH 7.5, 150 mM NaCl, 3.4 mM EDTA, 0.001% NP-40, 30 C. Particulars: tags: His6 N-terminal (pET28a); label: 5' 32P. In short, it runs like this:
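Relative association constants, normalised to the cognate motif, were derived by comparing read counts of each RNA species with those of the control reaction. The RNA sequenced was the free fraction, separated by 8% native PAGE after a 10 min equilibration in 50 µL of 1 nM 5′-radiolabelled RNA (7 randomized nucleotides) with increasing concentrations of purified wild-type or mutant RbFox RRM.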
Regarding B1, the binding signal was 0.00214 KA relative to UGCAUGU. Consider B2, for which the binding signal was 0.00456 KA relative to UGCAUGU. As to B3, the binding signal was 0.0046 KA relative to UGCAUGU. With B4, the binding signal was 0.00147 KA relative to UGCAUGU. Next, B5: 0.0181 KA relative to UGCAUGU. On to B6, for which the binding signal was 0.0062 KA relative to UGCAUGU. Next, B7: 0.0106 KA relative to UGCAUGU; B8: 0.00686 KA relative to UGCAUGU; B9: 0.0012 KA relative to UGCAUGU.

B10: the binding signal is 0.0134 KA relative to UGCAUGU. Take B11: the binding signal is 0.0115 KA relative to UGCAUGU.

On to B12, for which the binding signal is 0.00209 KA relative to UGCAUGU. To B13 belongs 0.0199 KA relative to UGCAUGU; to B14, 0.00674 KA relative to UGCAUGU. Take B15: the binding signal is 0.0464 KA relative to UGCAUGU.

As to B16, the binding signal is 0.00148 KA relative to UGCAUGU.

With B17, the binding signal is 0.00747 KA relative to UGCAUGU. Next, B18: 0.00814 KA relative to UGCAUGU; B19: 0.00517 KA relative to UGCAUGU.

Consider B20, for which the binding signal is 0.00233 KA relative to UGCAUGU.

For B21, the binding signal was 0.012 KA relative to UGCAUGU. Next, B22: 0.0125 KA relative to UGCAUGU; B23: 0.000979 KA relative to UGCAUGU; B24: 0.00449 KA relative to UGCAUGU. Take B25: the binding signal was 0.00238 KA relative to UGCAUGU.

Turning to B26, the binding signal was 0.00633 KA relative to UGCAUGU. To B27 belongs 0.00549 KA relative to UGCAUGU. Regarding B28, the binding signal is 0.00293 KA relative to UGCAUGU. With B29, the binding signal was 0.0178 KA relative to UGCAUGU. Consider B30, for which the binding signal is 0.0057 KA relative to UGCAUGU. Next, B31: 0.0104 KA relative to UGCAUGU.
